Laboratory results published in PubChem BioAssay AID2675 (National Center for Advancing Translational Sciences (NCATS), 2010).
The whole screen tested about 280,000 compounds, of which about 100 (0.036%) were called active. The shares of active, inactive and inconclusive entries below differ from those in the screen. Calls come from the whole dose curve; as a rule, active = well fitted inhibition curve with a large enough effect in the signal ratio, with a control signal flat (not every such curve was filed as active); inconclusive = small, poorly fitted or top-dose-only effect, or effect the other way, or a change in a side signal; inactive = no such curve, though single readings can be large or run the other way; the % refers to the signal ratio. Where the call is inconclusive, the potency comes from a doubtful curve fit. “Side channel” marks fits to a control or component signal instead of the main read-out.
% is set by controls: 0 for no effect and ±100 for the full control effect; potency is the fitted concentration of half-maximal effect; tags give direction and shape of the fitted curve or compound fluorescence and quenching.

What follows are compounds tested against Muscleblind-like protein 1 (Homo sapiens) (UniProt Q9NR56) (assay: qHTS Assay for Inhibitors of MBNL1-poly(CUG) RNA binding). Conditions: TR-FRET MBNL1-His/biotin-(CUG)12 binding, 665/545 ratio; activity change, negative = inhibition: at 57.5 µM (top of the series).
Chain of UniProt Q9NR56 (Q9NR56 whole entry, looked up): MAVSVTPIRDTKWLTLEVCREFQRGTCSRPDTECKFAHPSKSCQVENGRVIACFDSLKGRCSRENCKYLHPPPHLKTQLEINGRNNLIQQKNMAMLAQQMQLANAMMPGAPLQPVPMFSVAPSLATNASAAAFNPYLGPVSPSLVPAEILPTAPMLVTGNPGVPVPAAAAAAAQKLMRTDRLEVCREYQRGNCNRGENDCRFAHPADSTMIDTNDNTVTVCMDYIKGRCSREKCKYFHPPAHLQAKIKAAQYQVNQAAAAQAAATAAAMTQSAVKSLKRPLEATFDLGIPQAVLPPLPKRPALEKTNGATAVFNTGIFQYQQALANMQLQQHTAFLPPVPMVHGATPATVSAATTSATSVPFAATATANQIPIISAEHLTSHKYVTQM
How it was run: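 His-tagged MBNL1 binding to biotinylated (CUG)12 RNA was measured by TR-FRET using terbium anti-His antibody (0.055 ng/ul final) and streptavidin-XL665 (5 nM final). Compounds were titrated 92 nM to 58 uM; 60 min at room temperature.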
With `O=C1C(=O)N(CCS(=O)(=O)c2ccccc2)c2ccc(Cl)cc21` the “activity change, negative = inhibition” value was inactive: 4.29%.
For `O=C(Nc1ccc(Br)cn1)c1ccc([N+](=O)[O-])o1`, the Potency was inconclusive: 15.8 µM [quencher, side channel, partial curve].
With `CCOC(=O)C1CCCN(c2ccc(NC(=O)c3snc4c(=O)[nH]cnc34)cc2)C1` (stereo unspecified) the Potency was inconclusive: 2.51 µM [quencher, side channel, full curve].
For `Cc1cc(NC(=O)c2cccc([N+](=O)[O-])c2)n(-c2ccccc2)n1`, the Potency was inconclusive: 7.94 µM [quencher, side channel, full curve].
`COc1ccc(/C=N/Nc2cc(C)nc(N)n2)cc1` was tested, and the Potency was inconclusive: 17.8 µM [quencher, side channel, partial curve, poor fit].
In the case of `NC(=O)Cc1ccc(C(=O)c2ccc(Cl)cc2)s1`, the Potency is reported as inconclusive: 39.8 µM [quencher, side channel, partial curve].
For `Cc1cccc(OCc2nnc(SCC(=O)NCCc3ccccc3)o2)c1`, the “activity change, negative = inhibition” value was inactive: -12.5%.
With `CCN1CCN(C(=O)c2cc3cc4ccc(OC)cc4nc3s2)CC1` the Potency was inconclusive: 14.1 µM [quencher, side channel, partial curve].
In the case of `Cc1ccc[n+](C(C)C(=O)Nc2ccc(C)c([N+](=O)[O-])c2)c1` (stereo unspecified), the Potency is reported as inconclusive: 39.8 µM [quencher, side channel, single point].
With `Cc1c(NC(=S)NC(=O)c2cc3ccccc3o2)cccc1C(=O)O` the Potency was inconclusive: 39.8 µM [quencher, side channel, single point].
`CC(C)(C)Cc1nnc(NC(=O)c2ccc3c(c2)OCO3)s1` was tested, and the “activity change, negative = inhibition” value was inactive: -4.96%.
With `COCCCn1c(=N)c(C(=O)NCc2ccc3c(c2)OCO3)cc2c(=O)n3ccccc3nc21` the Potency was inconclusive: 3.98 µM [quencher, side channel, full curve].
With `COCCNC(=S)N/N=C(\C)c1ccc(C)c([N+](=O)[O-])c1` the Potency was inconclusive: 12.6 µM [quencher, side channel, partial curve, poor fit].
`CCN(CC)CCCN1C(=O)C(=O)/C(=C(/O)c2ccc(OC)c(Cl)c2)C1c1ccco1` (stereo unspecified) was tested, and the Potency was inconclusive: 39.8 µM [quencher, side channel, single point].
In the case of `Cn1c(O)c(N=NC(=O)CNC(=O)c2ccccc2)c2ccccc21`, the Potency is reported as inconclusive: 12.6 µM [quencher, side channel, partial curve].
In the case of `O=C1c2cnccc2CN1Cc1ccccc1`, the Potency is reported as inconclusive: 28.2 µM [quencher, side channel, single point].
